According to PubChem BioAssay AID1671194 (National Center for Advancing Translational Sciences (NCATS), 2021):
Out of some 140,000 compounds screened, about 240 (0.17%) were called active. This list was built around the results that the source calls inconclusive (neither active nor inactive); the mix of calls is not that of the screen. The call rests on the fitted dose curve; in most records, active means well fitted inhibition curve with a large enough effect; inconclusive means small, poorly fitted or top-dose-only effect; inactive means no such curve, though single readings can be large or run the other way. Potencies of inconclusive entries are doubtful fits and often do not repeat.

assay: Primary qHTS assay for inhibitors of alpha-synuclein gene (SNCA) expression; settings: HEK-293 SNCA-luciferase knock-in, luminescence, 24 h; activity change, negative = inhibition: at 57.2 µM (top of the series) unless noted; further: nearly all actives have a fitted effect of over 45% in size;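 on activity change, negative = inhibition: plate controls were DMSO cells for no effect and cell-free wells for full effect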
Potency means the concentration at half of the fitted maximal effect; tags describe the fitted curve by direction and shape.

Potency, active:
COc1ccccc1OC(C)C(=O)N1CCN(CCc2ccccn2)CC1 (centres undefined) 20 µM

Potency, inconclusive:
COc1ccc(N2CCN(C(=O)c3oc4ccccc4c3NC(=O)c3ccccc3OC)CC2)cc1 7.94 µM [inhibitor, single point], CCOC(=O)c1cc(-c2ccc(C)cc2)n(CCC(=O)Nc2ccc(OC)c(OC)c2)c1C 0.158 µM [inhibitor, full curve, poor fit], O=C(Nc1ccc(Oc2ccccc2)cc1)N[C@H]1CO[C@H]2[C@@H]1OC[C@@H]2n1nnnc1Oc1ccc(-n2ccnc2)cc1 39.8 µM [inhibitor, partial curve, poor fit], Cn1cccc1C(=O)N1CCOCC1CC(=O)N1CCSCC1 (centres undefined) 20 µM [inhibitor, single point], Cc1cccc(-c2nc(SCC(=O)Nc3ccc4c(c3)OCO4)c(-c3ccccc3)[nH]2)c1 0.501 µM [inhibitor, partial curve, poor fit], CCOc1cc(C(=O)N2CCC(Cc3nc(-c4ccc(F)cc4)no3)CC2)cc(OCC)c1OCC 17.8 µM [inhibitor, partial curve, poor fit], COc1ccccc1CNC(=O)CCCCn1c(=O)c2ccccc2n(CC(=O)Nc2cc(Cl)ccc2C)c1=O 7.08 µM [inhibitor, single point], CCCn1c(=O)c2sccc2n2c(CCCC(=O)Nc3cccc(CC)c3)nnc12 3.16 µM [inhibitor, single point], O=C(NCc1nc(-c2ncccn2)no1)c1csc(-c2cccs2)n1 1.58 µM [inhibitor, partial curve, poor fit], O=C(c1ccsc1)N1CCC(Oc2ccccc2-c2nc(C3CC3)no2)C1 (centres undefined) 17.8 µM [inhibitor, single point], CC(=O)c1cc(C(=O)N2C[C@@H](CN3CCCN(C)CC3)[C@@H](CO)C2)cs1 5.01 µM [inhibitor, single point], CCOC(=O)C1CCN(C(=O)c2nn(-c3ccc(C)cc3)c(=O)n(C)c2=O)CC1 10 µM [inhibitor, partial curve, poor fit], CCOc1ccc(CNC(=O)c2cnc(SC)nc2C)cc1 31.6 µM [inhibitor, single point], CS(=O)(=O)N[C@H]1C[C@H]2C(=O)Nc3ccc(-c4cccc(C(F)(F)F)c4)cc3C(=O)N2C1 14.1 µM [inhibitor, partial curve], Cc1ccc(CN2C(=O)N(c3ccc(C)c(Cl)c3)S(=O)(=O)c3ccccc32)cc1 3.16 µM [inhibitor, single point], O=C(Cc1c[nH]c2ccccc12)N[C@@H]1[C@@H]2CCO[C@@H]2[C@@H]1C1CCCC1 25.1 µM [inhibitor, single point], O=C1c2cnc(-c3cc4ccccc4o3)nc2OCCN1c1ccccc1 0.891 µM [inhibitor, full curve, poor fit], Cc1cccc(CCNC(=O)c2nc(-c3ccc(Cl)cc3)n3c2CCCCC3)c1 14.1 µM [inhibitor, single point], COc1ccc(C(=O)N2CCC3(CC2)N=C(c2ccc(Br)cc2)NO3)cc1 3.16 µM [inhibitor, partial curve, poor fit], COCc1ccc2c(c1)c(OC(C)(C)C(=O)Nc1cc(C)nn1C)nn2CCC(C)C 56.2 µM [inhibitor, single point], Cc1cccc(N2CCN(C(=O)c3ccc4c(c3)CCN4S(=O)(=O)c3ccccc3)CC2)c1C 39.8 µM [inhibitor, single point], CC(=O)N1CCc2cc(S(=O)(=O)CCC(=O)N3CCC(CCOc4ccccc4)C3)ccc21 (centres undefined) 1.26 µM [inhibitor, full curve, poor fit], COc1ccc(OC)c(CN2CCCn3nc(C)c(-c4ccccc4OCc4ccccc4)c32)c1 6.31 µM [inhibitor, full curve, poor fit], CC(C)OC(=O)N1CCC(COc2ccc3c(cnn3CC[S+](C)(=O)[O-])c2)CC1 7.94 µM [inhibitor, full curve, poor fit], COc1ccc(N(C(=O)c2cc(OC)c(OC)c(OC)c2)S(=O)(=O)c2ccc(C)cc2)cc1 14.1 µM [inhibitor, single point], Cc1ccccc1C(=O)Nc1ccc2nc(SCC(=O)N(C)c3ccccc3)sc2c1 0.282 µM [inhibitor, single point], CCCc1nc(C(=O)N[C@@H]2CCOC[C@H]2Oc2ccccn2)cs1 2.24 µM [inhibitor, partial curve, poor fit], COc1ccc(Cl)cc1NC(=O)c1c(NCc2cccs2)sc2c1CCC(C)C2 (centres undefined) 39.8 µM [inhibitor, single point], CC1(C(=O)N2CCC(c3ccccc3)CC2)CCOCC1 12.6 µM [inhibitor, single point], Cc1[nH]c2ccccc2c1SCCNC(=O)c1ccc(F)cc1 20 µM [inhibitor, single point], COc1ccc(S(=O)(=O)N(C(=O)c2ccncc2)c2ccc3oc(C)c(C(C)=O)c3c2)cc1 2.82 µM [inhibitor, full curve, poor fit], CCc1nc2c(c(-c3ccc(OC)cc3)n1)CN(C(=O)c1ccc(C)cc1)CC2 39.8 µM [inhibitor, single point], COc1ccccc1N1CCN(Cc2cc(COC(C)C)c3cccnc3c2O)CC1 4.47 µM [inhibitor, full curve, poor fit], COc1ccccc1CNC(=O)c1cnn(-c2ccc(F)cc2F)c1C1CCN(C(=O)OC(C)(C)C)CC1 14.1 µM [inhibitor, single point], Fc1ccccc1Nc1cnc2ccc(-c3ccccc3)nn12 50.1 µM [inhibitor, single point], CCN(CC)c1ccc(C2C(C(N)=O)=C(C)Nc3nc(SCc4ccccc4)nn32)cc1 (centres undefined) 10 µM [inhibitor, partial curve, poor fit], COc1ccc2c(c1)Cc1sc(NC(=O)c3cccc(Cl)c3)nc1-2 39.8 µM [inhibitor, single point], OC1CCOC2(CCN(Cc3ccccc3OC(F)(F)F)CC2)C1 (centres undefined) 14.1 µM [inhibitor, partial curve], C[C@@H]1C(=O)O[C@H]2[C@H]1CC[C@@]1(C)Cc3sc(Nc4ccccc4)nc3[C@@H](C)[C@H]21 2.82 µM [inhibitor, full curve, poor fit], NC(=O)CNC(=O)[C@@]1(O)C[C@@H](O)[C@H](O)[C@@H](NC(=O)Nc2ccc(OC(F)(F)F)cc2)C1 3.55 µM [inhibitor, full curve]

Activity change, negative = inhibition, inactive:
O=C(c1ccc(Cl)cc1)N1CCC2(CC1)C(=O)NCN2Cc1ccc(Cl)cc1 0.411%, COc1ccc2cc(C(=O)N3CCC4(CC3)CC(C(=O)N3CCOCC3)N(C)C4)[nH]c2c1 (centres undefined) 8.11%, O=C(NCc1ccc(Cl)cc1)c1ccc2nnc(-c3cc(C(F)(F)F)cc(C(F)(F)F)c3)n2c1 3.15%, COC[C@@H]1CN(C(=O)c2cccnc2)C[C@H]1c1ccccn1 -3.97%, CCCC(=O)NC1CCN(c2ccnc3ccnn23)C1 (centres undefined) 35.1% [at 87.6 µM], CCOc1cc(C(=O)Nc2ccc(-c3nc4ncccc4o3)cc2C)cc(OCC)c1OCC -20.3%, CCOc1ccc(CN2CCC3(CC2)CC(O)CCO3)cc1 (centres undefined) 0.473%, COc1ccc(-c2ccc3c(c2)C(=O)N2CCN(C(=O)c4ccccc4)C[C@@H]2C(=O)N3)cc1 2.2%, O=C(c1nc(-c2ccc(F)cc2)c2cnccn12)N1CCOCC1 4.55% [at 87.6 µM], O=C(NC1CCCC1)N1CCCC(C(=O)N2CCCC2c2nc3ccncc3[nH]2)C1 (centres undefined) -8.28%, COc1ccccc1-c1ccc(C(=O)N2CCC(C(=O)NCc3cccc(F)c3)CC2)cc1 9.13%, O=C(c1cc(=O)[nH]c(=O)[nH]1)N1CCc2onc(-c3ccccc3F)c2C1 -3.07%, Cn1c(N2CCN(C(=O)CC[C@H]3NC(=O)c4ccccc4NC3=O)CC2)nc2ccccc21 -16%, CC(C)(Oc1nn(Cc2cccc(Cl)c2)c2ccccc12)C(=O)NCCc1cnc[nH]1 -11.4% [at 87.6 µM], O=C(c1n[nH]c2c1CCCC2)N1CCC2(CC1)N=C(c1ccccc1)NO2 89.2%, O=C(NCc1ccccc1)N1CC(Oc2ccc(-c3nc(-c4ccccc4)no3)cc2)C1 15.7%, CCc1ccc(C(=O)N2CCC3(CC2)N=C(c2ccc(C)cc2)NO3)cc1 27.2%, CCN1CCN(Cc2cc(C)cc(CN(C)Cc3ccccn3)c2C)CC1 13.1%, CC(C)(C(=O)NCCC1COc2ccccc2O1)N1CCOCC1 (centres undefined) -11%, COCCCNC(=O)C1CCCN(c2nccc(Nc3ccccc3F)n2)C1 (centres undefined) -28.8%, CC(=O)Nc1cccc(-c2ccc3c(n2)CN(Cc2ccccc2F)C(=O)CO3)c1 -15.4% [at 87.6 µM], O=C1NCCCCCCN(C(=O)Nc2ccccc2)[C@H]2C[C@H](c3nc(Cc4ccccc4)no3)C[C@@H]12 7.02%, Fc1ccc2nc(CO[C@H]3CN(CC4CC4)C[C@H]3F)[nH]c2c1 3.1% [at 87.6 µM]
